Measurements taken from PubChem BioAssay AID588453 (National Center for Advancing Translational Sciences (NCATS), 2011).
Several values for one entry are separate records, joined by “and”; a condition that tells them apart may be missing. Identical values can stand only once. Screen size: about 390,000 compounds; about 4,000 (1%) were called active. The inconclusive results got no clear call from the source; some entries with a clear call stand among them for comparison. The call rests on the fitted dose curve; in most records, active means well fitted inhibition curve with a large enough effect; inconclusive means small, poorly fitted or top-dose-only effect; inactive means no such curve, though single readings can be large or run the other way. A potency beside an inconclusive call is a rough fit, not a confirmed value.

Molecular target: Thioredoxin reductase 1, cytoplasmic (Rattus norvegicus) (UniProt O89049)
Assay: qHTS Assay for Inhibitors of Mammalian Selenoprotein Thioredoxin Reductase 1 (TrxR1): qHTS; further: nearly all actives have a fitted effect of over 65% in size
Settings: recombinant rTrxR1, NADPH fluorescence consumption, selenite substrate; series mostly up to 114 µM; activity change, negative = inhibition: at the top concentration
In short: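 Rat TrxR1 (90 nM in the dispensed reagent) was pre-reduced with 400 uM NADPH for 5 min at room temperature, then incubated with compound for 15 min. After 400 uM selenite was added, NADPH fluorescence (Ex 340/Em 450 nm) was followed for 8 min.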
On the % scale 0 is the no-effect control and ±100 the full control effect; potency means the concentration at half of the fitted maximal effect; tags describe the fitted curve by direction and shape.

UniProt O89049, sequence (O89049 whole entry, looked up): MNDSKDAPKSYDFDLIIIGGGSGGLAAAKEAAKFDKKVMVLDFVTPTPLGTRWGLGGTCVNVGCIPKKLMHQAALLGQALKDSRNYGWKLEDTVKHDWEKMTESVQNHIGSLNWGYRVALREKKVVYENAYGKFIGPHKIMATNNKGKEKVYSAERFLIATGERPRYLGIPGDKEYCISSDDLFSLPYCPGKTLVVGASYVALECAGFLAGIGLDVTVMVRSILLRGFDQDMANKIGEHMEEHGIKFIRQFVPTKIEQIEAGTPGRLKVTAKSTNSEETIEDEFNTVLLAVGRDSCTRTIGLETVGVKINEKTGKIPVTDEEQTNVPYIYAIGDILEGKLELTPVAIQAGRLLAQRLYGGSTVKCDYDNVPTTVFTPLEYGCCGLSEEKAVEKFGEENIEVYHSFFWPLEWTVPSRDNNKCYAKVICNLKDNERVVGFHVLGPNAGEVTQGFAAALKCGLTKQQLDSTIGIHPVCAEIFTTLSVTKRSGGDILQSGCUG

Structure (SMILES) | Potency | activity change, negative = inhibition
Cc1ccc(-n2nc(C)c(NC(=O)COC(=O)c3ccccc3NCCO)c2C)cc1 | inconclusive: 35.5 µM [inhibitor, single point] | 
O=C(Nc1ccc2nc(SCC(=O)N3CCCC3)sc2c1)c1cccc(Br)c1 |  | inactive: 32.5%
O=C1C(Cl)=C(Oc2ccccc2)C(=O)c2ccccc21 | inconclusive: 0.501 µM [inhibitor, full curve, poor fit] | 
CCCCc1nn2c(=O)cc(COC(=O)c3ccc(NC(=O)CCc4ccccc4)cc3)nc2s1 |  | inactive: 10.1% [at 57.1 µM]
CCCc1cc(C(=O)Nc2ccccc2SC)no1 | inconclusive: 4.47 µM [inhibitor, single point] | 
CC(CCc1ccccc1)NC(=O)COC(=O)c1ccc(S(C)(=O)=O)c([N+](=O)[O-])c1 (stereo unspecified) | active: 0.794 µM | 
COc1cc(CN2CCN(c3ccccc3F)CC2)cc(OC)c1O | inconclusive: 22.4 µM [inhibitor, full curve] | 
Cc1noc(/C=C/c2nn(C)cc2Cl)c1[N+](=O)[O-] | inconclusive: 20 µM [inhibitor, full curve] | 
Nc1[nH]c(N=NC(=O)c2ccc(F)cc2)c2ccccc12 | inconclusive: 70.8 µM [inhibitor, partial curve] | 
O=C(CN1CCCCCC1)Nc1cccc(Br)c1 | inconclusive: 100 µM [inhibitor, single point] | 
O=C(CCC(=O)c1cccs1)NNC(=O)c1ccccc1O | inconclusive: 39.8 µM [inhibitor, single point] | 
Cc1ccc(OCCn2c(CCNC(=O)C(C)C)nc3ccccc32)cc1 |  | inactive: 0.909%
CCOc1cc(C=O)cc(N=Nc2cccc([N+](=O)[O-])c2)c1O | inconclusive: 89.1 µM [inhibitor, single point] | 
CCSc1oc(-c2ccco2)nc1S(=O)(=O)c1ccccc1 | inconclusive: 63.1 µM [inhibitor, single point] | 
Cc1c(NC(=S)NC(=O)c2ccc(-c3ccc(Cl)cc3)o2)cccc1C(=O)O | inconclusive: 79.4 µM [inhibitor, single point] | 
O=C1COc2ccc(S(=O)(=O)CCC(=O)N3CCN(c4ccccc4)CC3)cc2N1 | inconclusive: 79.4 µM [inhibitor, partial curve, poor fit] | 
Cc1cc(C)cc(NC(=S)NCc2cccn2C)c1 | inconclusive: 31.6 µM [inhibitor, partial curve, poor fit] | 
CCOc1ccccc1Nc1nnc(-c2cc3cc(OC)ccc3oc2=O)s1 |  | inactive: 11.6% [at 57.1 µM]
CC1Cc2ccccc2N1C(=O)CSc1nnc(-c2ccccc2Cl)o1 (stereo unspecified) |  | inactive: 16%
O=C(NCCNCCO)C1(C(F)(F)F)C/C(=C\Cc2ccccc2)CCCO1 (stereo unspecified) | inconclusive: 44.7 µM [inhibitor, single point] | 
FC(F)(F)c1cccc(NC(=S)NCC2COc3ccccc3O2)c1 (stereo unspecified) | inconclusive: 89.1 µM [inhibitor, partial curve, poor fit] | 
C/C=C/c1cc(CN2CCN(c3ccc(OC)cc3)CC2)c(O)c(OC)c1 | inconclusive: 2.82 µM [inhibitor, full curve] | 

Structure (SMILES) | Potency | activity change, negative = inhibition
Cc1cc(C)nc(N/N=C/c2ccccc2)n1 |  | inactive: -12.7%
CCc1nc(C(N)=O)c2[nH]c(=O)n(-c3ccccc3F)c2n1 | inconclusive: 56.2 µM [inhibitor, partial curve, poor fit] | 
CC1CCC(Nc2nc3c(-c4cccc(C(F)(F)F)c4)nnn3c3ccccc23)CC1 (stereo unspecified) |  | inactive: 75.3%
N#C/C(=C\c1cccc(OC(=O)c2cccs2)c1)C(N)=O | inconclusive: 39.8 µM [inhibitor, partial curve] | 
O=C(CSc1nc2ccccc2s1)N/N=C/c1ccco1 |  | inactive: -24.3%
O=C(c1cc(-c2ccco2)on1)N1CCN(C(c2ccccc2)c2ccccc2)CC1 | inconclusive: 25.1 µM [inhibitor, full curve] | 
CCOCCCn1c(=N)c(C(=O)NCCN2CCOCC2)cc2c(=O)n3cccc(C)c3nc21 | inconclusive: 70.8 µM [inhibitor, single point] | 
Cc1cc(C(F)(F)F)nn1Cc1ccc(C(=O)NCc2ccco2)o1 | inconclusive: 17.8 µM [inhibitor, full curve] | 
Cc1ccc(/C=C/C(=O)Nc2ccc([N+](=O)[O-])c(NC(=O)/C=C/c3ccc(C)o3)c2)o1 | active: 25.1 µM | 
CC(=O)c1ccc(NC(=O)CCCSc2nc(-c3ccco3)cc(C(F)(F)F)n2)cc1 | inconclusive: 56.2 µM [inhibitor, partial curve, poor fit] | 
Oc1ccc(NCc2ccccc2OCc2ccccc2F)cc1 | inconclusive: 39.8 µM [inhibitor, single point] and inconclusive: 50.1 µM [inhibitor, partial curve] | 
CC(=O)c1sc(NC(=O)CCCOc2ccc(Cl)cc2)nc1C | inconclusive: 20 µM [inhibitor, single point] | 
Nc1cccnc1S(=O)(=O)c1cccc(C(F)(F)F)c1 | inconclusive: 3.98 µM [inhibitor, single point] | 
O=C1/C(=C\Nc2ccc(Cl)cc2)CCN1c1ncccn1 | inconclusive: 28.2 µM [inhibitor, single point] | 
Cc1cnc(C(=O)OCC(=O)N2CCc3ccccc32)cn1 | inconclusive: 50.1 µM [inhibitor, partial curve] | 
CC1(CCc2ccccc2)NC(=S)N(c2ccccc2)N1 (stereo unspecified) | inconclusive: 50.1 µM [inhibitor, partial curve, poor fit] | 
C1=Cc2ccccc2/C1=C(\Cc1ccncc1)Oc1ccncc1 |  | inactive: -3.95%
O=c1oc2ccccc2c(N2CCCC2)c1CN1CCCC1 | inconclusive: 12.6 µM [inhibitor, partial curve, poor fit] | 
CCc1cc2c(=O)n(Cc3ccco3)c(SCC(=O)N(C)C3CCS(=O)(=O)C3)nc2s1 (stereo unspecified) | inconclusive: 31.6 µM [inhibitor, single point] | 
CS(=O)(=O)N1N=C(c2ccco2)CC1c1ccccc1 (stereo unspecified) | inconclusive: 50.1 µM [inhibitor, partial curve, poor fit] | 
Cc1ccc(CN(C(=O)c2ccccc2F)c2ccccn2)o1 | inconclusive: 17.8 µM [inhibitor, partial curve, poor fit] | 
COc1ccc(CCNC(=O)CCS(=O)(=O)c2cccc3nsnc23)cc1OC | inconclusive: 79.4 µM [inhibitor, partial curve, poor fit] | 

Structure (SMILES) | Potency | activity change, negative = inhibition
O=C1C=C(O)c2cccc(O)c2C1=O |  | inactive: -0.605%
CCS(=O)(=O)C1=NN2C(=N)/C(=C\c3ccc(OS(=O)(=O)c4ccccc4)cc3)C(=O)N=C2S1 | inconclusive: 50.1 µM [inhibitor, partial curve] | 
CCC(=O)Nc1cc(C(=O)OCC(=O)c2ccc(Cl)cc2Cl)ccc1C |  | inactive: -5.17%
COc1ccc(C(c2c(O)cc(C)oc2=O)c2c(O)cc(C)oc2=O)cc1 | inconclusive: 28.2 µM [inhibitor, partial curve] | 
O=C(Nc1cccc(Oc2ccc(C(=O)O)c(C(=O)O)c2)c1)c1ccc(-c2ccccc2)cc1 | inconclusive: 50.1 µM [inhibitor, partial curve] | 
CCOC(=O)c1[nH]cnc1C(=O)Nc1cccc(N)n1 |  | inactive: 1.05%
COc1ccc(-n2c(C)cc(/C=C3\SC(=S)N(Cc4ccco4)C3=O)c2C)cc1 | inconclusive: 11.2 µM [inhibitor, full curve] | 
Clc1cccc(CNc2cc(-c3ccccc3)nc3nncn23)c1 |  | inactive: 4.45%
CCC(=O)Nc1nnc(SCC(=O)NCc2ccc3c(c2)OCO3)s1 | inconclusive: 100 µM [inhibitor, single point] | 
O=[N+]([O-])c1cccc(S(=O)(=O)c2ccc(NCCOCCO)c([N+](=O)[O-])c2)c1 | inconclusive: 22.4 µM [inhibitor, partial curve, poor fit] | 
CCCC(c1nnnn1Cc1ccco1)N1CCC(C(N)=O)CC1 (stereo unspecified) | inconclusive: 22.4 µM [inhibitor, full curve, poor fit] | 
COc1ccc(C2CC(=O)N3CN(c4ccccc4F)CSC3=C2C#N)cc1OC (stereo unspecified) | inconclusive: 25.1 µM [inhibitor, partial curve] | 
COc1ccc(C(C(=O)NC2CCCCC2)N(C(=O)c2ccco2)c2ccccc2OC)cc1 (stereo unspecified) |  | inactive: 3.5%
COc1ccccc1-c1nc2c(c(SCC(=O)N3CCCCC3)n1)Cc1c(CO)cnc(C)c1O2 | inconclusive: 70.8 µM [inhibitor, partial curve] | 
CCCOC(=O)c1c(NC(=O)C2c3ccccc3Oc3ccccc32)sc2c1CCCC2 | inconclusive: 89.1 µM [inhibitor, single point] | 
Clc1cccc(-c2nnc(SC/C=C/c3ccccc3)n2Cc2ccco2)c1 | inconclusive: 70.8 µM [inhibitor, single point] | 
COc1cc2cc(CN(CCc3cccc(C)c3)C(=S)NCCCN(C)C)c(=O)[nH]c2cc1OC | inconclusive: 39.8 µM [inhibitor, full curve, poor fit] | 
Cc1nc(N=Nc2ccc(C(=O)O)cc2)c(COP(=O)(O)O)c(C=O)c1O | inconclusive: 26.7 µM [inhibitor, partial curve, poor fit] | 
CCN1CCN(C2=C(NS(=O)(=O)c3ccc(NC(C)=O)cc3)C(=O)c3ccccc3C2=O)CC1 |  | inactive: 22.7%
C/C(=N\S(=O)(=O)c1ccc(C)cc1)N1CCCCC1 | inconclusive: 89.1 µM [inhibitor, single point] | 
O=[N+]([O-])c1cc(Cl)ccc1N1CCN(c2ccccc2O)CC1 |  | inactive: 22.9% [at 57.1 µM]
COc1ccccc1C(=O)Nc1ncc2c(n1)CC(c1ccco1)CC2=O (stereo unspecified) | inconclusive: 25.1 µM [inhibitor, partial curve, poor fit] | 
